{"source": "PubChem BioAssay AID686978", "about": "(National Center for Advancing Translational Sciences (NCATS), 2013)", "note": "“And” between values parts separate entries of the source, which are not always exact repeats. Equal values may be shown once. Out of some 420,000 compounds screened, about 64,000 (15%) were called active. This list was built around the results that the source calls inconclusive (neither active nor inactive); the mix of calls is not that of the screen. Calls follow the shape of the dose curve; as a rule, active = well fitted inhibition curve with a large enough effect; inconclusive = small, poorly fitted or top-dose-only effect; inactive = flat fitted curve, though single readings scatter. Potencies of inconclusive entries are doubtful fits and often do not repeat. % is scaled to controls: 0 for no effect and ±100 for the full control effect; potency is read from the fitted curve at half-maximal effect; tags tell the direction and shape of the fitted curve."}
{"test": "qHTS for Inhibitors of human tyrosyl-DNA phosphodiesterase 1 (TDP1): qHTS in cells in absence of CPT; also: nearly all actives have a fitted effect of over 55% in size", "settings": "DT40 Tdp1-/- hTDP1 cells, no CPT, ATP luminescence, 48 h; activity change, negative = growth inhibition: at 46.2 µM (top of the series) unless noted", "method_in_brief": "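Camptothecin absent (DMSO only). Human TDP1-complemented DT40 knockout cells, 400 cells/well, 37 °C for minimum 48 hr; ATP measured via CellTiter-Glo, 30 min dark incubation, luminescence.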"}
{"smiles": "O=C(Nc1cccc(C(=O)N2CCOCC2)c1)NC1CCCCC1", "activity change, negative = growth inhibition": "inconclusive: -36.2% [inhibitor]"}
{"smiles": "Cc1cc(N(C)/N=C/c2ccccc2)nc(-c2ccccc2O)n1", "Potency": "inconclusive: 29.1 µM [inhibitor, single point]"}
{"smiles": "COc1ccc(-c2nc3c(Cl)cc(C(F)(F)F)cn3c2Cc2ccsc2)cc1OC", "Potency": "inconclusive: 20.6 µM [inhibitor, single point]"}
{"smiles": "CCC(C)(C)c1ccc(Oc2ccc(NC(=O)COC(=O)C3=COCCO3)cc2)cc1", "Potency": "active: 25.9 µM"}
{"smiles": "C[C@@H]1CN([C@H](C)CO)C(=O)Cc2cc(NC(=O)Nc3ccccc3)ccc2O[C@@H]1CN(C)Cc1ccc2c(c1)OCO2", "Potency": "inconclusive: 29.1 µM [inhibitor, single point]"}
{"smiles": "CCOc1ccc(NC(=O)c2ccc3c(c2)CCN3S(=O)(=O)CC)cc1", "activity change, negative = growth inhibition": "inconclusive: -32% [inhibitor]"}
{"smiles": "O=S(=O)(c1cccc(C(F)(F)F)c1)N1CCN(C(=S)NCc2ccco2)CC1", "Potency": "inconclusive: 25.9 µM [inhibitor, single point]"}
{"smiles": "C[C@H](CO)N1C[C@H](C)[C@@H](CN(C)Cc2ccc(-c3ccccc3)cc2)Oc2c(NS(=O)(=O)c3cccs3)cccc2C1=O", "Potency": "inconclusive: 25.9 µM [inhibitor, single point]"}
{"smiles": "COc1ccc(C2=C(N)c3ccccc3C2=O)cc1", "activity change, negative = growth inhibition": "inconclusive: -31.9% [inhibitor]"}
{"smiles": "Cc1c(C(=O)Nc2ccc3nc(N4CCOCC4)sc3c2)oc2ccccc12", "Potency": "inconclusive: 29.1 µM [inhibitor, single point]"}
{"smiles": "COc1ccc(N2CCN(C(c3ccccc3)c3nnnn3C(C)C)CC2)cc1", "note": "(stereo not given)", "Potency": "inconclusive: 35.5 µM [inhibitor, single point]"}
{"smiles": "CCN(CC)C(=O)Cn1c(=O)cc(C)c2c(C)nn(-c3ccc(C)cc3)c21", "activity change, negative = growth inhibition": "inactive: 5.07%"}
{"smiles": "CS(=O)(=O)Nc1ccc(C(=O)NCCSCc2ccccc2)cc1", "activity change, negative = growth inhibition": "inactive: -21%"}
{"smiles": "CCOc1ccc(Nc2nc(Cc3nnc(SCC(=O)NCc4ccco4)n3CC)cs2)cc1", "Potency": "active: 13 µM"}
{"smiles": "c1ccc(Sc2ccccn2)cc1", "activity change, negative = growth inhibition": "inactive: 1.9%"}
{"smiles": "Cc1ccc(S(=O)(=O)N2[C@@H](c3ccccc3F)C(C(=O)O)=CC[C@H]2c2ccc(Cl)cc2)cc1", "activity change, negative = growth inhibition": "inactive: -17.6%"}
{"smiles": "COCCCNCC(O)C(F)(F)F", "note": "(stereo not given)", "activity change, negative = growth inhibition": "inactive: 2.5%"}
{"smiles": "CCOC(=O)C1CCN(C2=NC(=O)/C(=C/c3ccc(Cl)cc3)S2)CC1", "activity change, negative = growth inhibition": "inactive: -9.63%"}
{"smiles": "COc1ccc(-c2cc(-c3ccccc3)nc3c2COc2ccc(F)cc2-3)cc1", "Potency": "inconclusive: 20.6 µM [inhibitor, partial curve]"}
{"smiles": "CN(C)S(=O)(=O)c1ccc(Cl)c(NC(=O)CSc2nc3ccccc3c(=O)n2CCCN2CCOCC2)c1", "Potency": "active: 25.9 µM"}
{"smiles": "O=C(NC1CCCC1)C(c1cccnc1)N(C(=O)c1csnn1)C1CCCC1", "note": "(stereo not given)", "activity change, negative = growth inhibition": "inactive: 4.1%"}
{"smiles": "COC(=O)c1c[n+]([O-])ccc1OC", "activity change, negative = growth inhibition": "inactive: -23.6%"}
{"smiles": "CCCCC(=O)Nc1ccc(S(=O)(=O)N2CCCCC2c2cccnc2)cc1", "note": "(stereo not given)", "Potency": "active: 13 µM"}
{"smiles": "Cc1ccc(N=C2NC(=O)/C(=C/c3cccn3C)S2)cc1", "Potency": "active: 4.61 µM"}
{"smiles": "CCc1ccc2[nH]c(=O)c(CN(Cc3ccc4c(c3)OCO4)Cc3nnnn3C3CCCC3)cc2c1", "Potency": "inconclusive: 23.1 µM [inhibitor, single point]"}
{"smiles": "O=C(/C=C/c1ccc(S(=O)(=O)NCc2ccco2)cc1)NCc1ccccc1Cl", "Potency": "active: 18.4 µM"}
{"smiles": "COC(=O)c1ccc(C2c3c(oc4ccccc4c3=O)C(=O)N2CCCN2CCOCC2)cc1", "note": "(stereo not given)", "Potency": "inconclusive: 20.6 µM [inhibitor, single point]"}
{"smiles": "CC(C)(C)c1ccc(S(=O)(=O)NNC(=O)c2cc3ccccc3[nH]2)cc1", "Potency": "inconclusive: 13 µM [inhibitor, partial curve]"}
{"smiles": "Cc1c(S(=O)(=O)c2ccccn2)c(N)n(Cc2ccccc2Cl)c1C", "Potency": "inconclusive: 32.6 µM [inhibitor, partial curve]"}
{"smiles": "COc1ccc2c(c1)Cc1sc(NC(C)=O)nc1-2", "activity change, negative = growth inhibition": "inactive: 4.2%"}
{"smiles": "O=C(Nc1ccc(F)cc1)C(c1ccccc1)N1CCN(c2cccc(C(F)(F)F)n2)CC1", "note": "(stereo not given)", "Potency": "inconclusive: 29.1 µM [inhibitor, single point]"}
{"smiles": "COc1cc(OC)c(-c2nn3c(-c4cc(C)[nH]n4)nnc3s2)cc1OC", "Potency": "active: 4.47 µM"}
{"smiles": "CC12CCCCC1=CC(=O)CC2", "note": "(stereo not given)", "activity change, negative = growth inhibition": "inactive: -2.63%"}
{"smiles": "Cn1c(CC2Sc3ccccc3NC2=O)nnc1SCC(=O)c1ccc(Cl)cc1", "note": "(stereo not given)", "Potency": "inconclusive: 18.4 µM [inhibitor, partial curve]"}
{"smiles": "COc1ccc(OCCCC(=O)OCC(=O)Nc2nnc(-c3ccccc3)o2)cc1", "Potency": "inconclusive: 6.51 µM [inhibitor, single point]"}
{"smiles": "Cc1cccc(NC(=S)/N=C(\\N)Nc2nc(C)c3ccccc3n2)c1", "Potency": "inconclusive: 16.4 µM [inhibitor, single point]"}
{"smiles": "Cc1ccc(CSc2ncc(Cl)c(C(=O)NCc3ccccc3)n2)cc1", "activity change, negative = growth inhibition": "inconclusive: -34% [inhibitor]"}
{"smiles": "CCCCOC(=O)CSC1=C(C#N)C(c2ccccc2OC)C(C#N)C(=O)N1", "note": "(stereo not given)", "activity change, negative = growth inhibition": "inactive: -29.5%"}
{"smiles": "CCN(CC(=O)Nc1c(F)cccc1F)C(=O)c1cnc(C)cn1", "activity change, negative = growth inhibition": "inactive: 2.58%"}
{"smiles": "Cc1cccc(C(=O)Nc2sc3c(c2C#N)CCCCC3)c1", "Potency": "inconclusive: 20.6 µM [inhibitor, single point]"}
{"smiles": "COC(=O)c1cc(=O)n(CCc2ccc(OC)cc2)c(=Nc2ccc(F)c(Cl)c2)s1", "Potency": "inconclusive: 16.4 µM [inhibitor, single point]"}
{"smiles": "Cc1cc(S(=O)(=O)NCCCN2CCOCC2)c(Cl)cc1Cl", "activity change, negative = growth inhibition": "inactive: -16.4%"}
{"smiles": "Cc1ccc(C(=O)NCCCNC(=O)c2ccco2)cc1", "activity change, negative = growth inhibition": "inactive: -20.6%"}
{"smiles": "Cc1cc(C(=O)N2CCN(c3ccc(C(F)(F)F)cn3)CC2)c(C)o1", "Potency": "active: 10.3 µM"}
{"smiles": "CC(=O)N1c2ccccc2C2CCCC[C@@H]21", "note": "(stereo not given in full)", "activity change, negative = growth inhibition": "inactive: -28.1%"}
{"smiles": "CCSc1ccccc1C(=O)Nc1ccc(S(=O)(=O)NC(C)=O)cc1", "activity change, negative = growth inhibition": "inactive: -15.2%"}
{"smiles": "O=C(CN1C(=O)NC(Cc2c[nH]c3ccccc23)C1=O)Nc1cccc(S(=O)(=O)N2CCOCC2)c1", "note": "(stereo not given)", "Potency": "inconclusive: 23.1 µM [inhibitor, partial curve]"}
{"smiles": "CC(C)CCNc1ncnc2c1cnn2Cc1ccccc1Cl", "Potency": "inconclusive: 16.4 µM [inhibitor, partial curve, poor fit]"}
{"smiles": "COc1ccc2c(c1)C(=O)N1[C@H]3c4cc(Br)ccc4OC[C@@H]3[C@H](c3ccccc3)[C@]1(C)C(=O)N2", "Potency": "inconclusive: 29.1 µM [inhibitor, single point]"}
{"smiles": "CC1CC(C)CN(S(=O)(=O)c2ccc(C(C)(C)C)cc2)C1", "note": "(stereo not given)", "Potency": "inconclusive: 29.1 µM [inhibitor, single point]"}
{"smiles": "CCN1CCN(CCCNC(=O)c2cc3sccc3n2CC)CC1", "activity change, negative = growth inhibition": "inactive: -5.63%"}
{"smiles": "CCOC(=O)CSc1ccc(C(=O)NCCCN2CCOCC2)cc1[N+](=O)[O-]", "activity change, negative = growth inhibition": "inactive: -7.73%"}
{"smiles": "COc1ccc2[nH]c3c(c2c1)CCN(C(=O)c1cccc(Cl)c1)C3c1ccc(F)cc1", "note": "(stereo not given)", "Potency": "inconclusive: 29.1 µM [inhibitor, single point]"}
{"smiles": "O=C(C1CC1)N1CCc2cc(S(=O)(=O)NCCCN3CCCCC3)ccc21", "Potency": "inconclusive: 29.1 µM [inhibitor, single point]"}
{"smiles": "FC(F)Oc1ccc(/C=N/NC(=S)Nc2cc(C(F)(F)F)ccc2Cl)cc1", "activity change, negative = growth inhibition": "inconclusive: -34.1% [inhibitor]"}
{"smiles": "CCOC(=O)c1ccc(OCC2NCCc3cc(OC)c(OC)cc32)cc1", "note": "(stereo not given)", "Potency": "inconclusive: 29.1 µM [inhibitor, single point]"}
{"smiles": "O=C(CC1NCCc2ccccc21)Nc1ccccc1", "note": "(stereo not given)", "activity change, negative = growth inhibition": "inactive: 4.43%"}
{"smiles": "CN1CCN(CCC(=O)N2c3ccccc3Sc3ccc(C(F)(F)F)cc32)CC1", "Potency": "inconclusive: 29.9 µM [inhibitor, single point] and inconclusive: 35.5 µM [inhibitor, single point]"}
{"smiles": "CCc1ccccc1N1C(=O)c2cccc3c(N4CCOCC4)c([N+](=O)[O-])cc(c23)C1=O", "Potency": "inconclusive: 20.6 µM [inhibitor, single point]"}
{"smiles": "CCOc1ccc(-n2c(C)cc(/C=C3/C(=N)N4C(=NC3=O)SN=C4S(C)(=O)=O)c2C)cc1", "Potency": "inconclusive: 18.4 µM [inhibitor, single point]"}
{"smiles": "O=C(Nc1cccc2ccccc12)/C(=C\\c1cccc([N+](=O)[O-])c1)NC(=O)c1cccs1", "Potency": "inconclusive: 29.1 µM [inhibitor, single point]"}
{"smiles": "O=C(Cc1c[nH]c2ccccc12)N1CCC(n2c(C3CCCO3)nc3cc(C(F)(F)F)ccc32)CC1", "note": "(stereo not given)", "Potency": "inconclusive: 25.9 µM [inhibitor, single point]"}
{"smiles": "CN(Cc1ccccc1)C(=O)c1oc(=O)c2ccccc2c1-c1ccccc1", "activity change, negative = growth inhibition": "inconclusive: -36.2% [inhibitor]"}
{"smiles": "Cc1ccccc1NC(=S)NNC(=O)c1cccnc1", "Potency": "inconclusive: 29.1 µM [inhibitor, single point]"}
{"smiles": "COc1cccc(NC(=O)C2(C)CCN2CCc2ccccc2)c1", "note": "(stereo not given)", "Potency": "inconclusive: 29.1 µM [inhibitor, single point]"}
{"smiles": "CN1CC[C@@H]2C(=O)N3CCc4ccc(-c5ccc6c(c5)OCO6)cc4[C@@H]3C[C@@H]21", "Potency": "inconclusive: 14.6 µM [inhibitor, partial curve]"}
{"smiles": "COc1ccc(CCNC(=O)CSc2nc(-c3ccc(OC)c(OC)c3)ccc2C#N)cc1", "Potency": "inconclusive: 23.1 µM [inhibitor, single point]"}
{"smiles": "CCOC(=O)C[C@H]1c2cc(C(F)(F)F)ccc2S(=O)(=O)N1Cc1ccccc1", "Potency": "inconclusive: 20 µM [inhibitor, single point]"}
{"smiles": "Cn1c(COc2ccc([N+](=O)[O-])cc2)nnc1SCC(=O)NCC1CCCO1", "note": "(stereo not given)", "activity change, negative = growth inhibition": "inactive: -5.75%"}
{"smiles": "CCCCNc1c(-c2ccc(SC3CCCCC3)cc2)nc2cnccn12", "Potency": "inconclusive: 33.2 µM [inhibitor, single point] and inconclusive: 29.1 µM [inhibitor, single point]"}
